{"source": "paper PMC11507940", "about": "(bioRxiv, 2024)", "proteins": {"B1": {"name": "Human recombinant fibroblast activation protein alpha (enzyme)", "chain": "not shown", "modifications": "glycosylated (NAG modelled in the cryo-EM structures)"}}, "biological_target": "the molecule itself", "assay": "mass photometry"}
{"protein": "B1", "values": [{"measurement": "stoichiometry N", "value": 2}]}
